Our source for the GI50 and TGI values is PubChem BioAssay (NCI).

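Grown in 96-well plates, cells were treated for 48 hours with each compound at five concentrations. Insufficient inhibition: endpoint recorded as highest concentration tested. The concentration for 50% growth inhibition is given as GI50. TGI denotes the concentration required for complete inhibition of growth.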

In this assay the test system is NCI-H322M lung. Briefly: NCI-60 cell line screen, 48 h.
As for `CCOc1ccc(/C=C/[N+](=O)[O-])cc1`, the GI50 was 27.2 µM and the TGI worked out at 71 µM.

With `Nc1ncnc2c1ncn2C1CCC(CO)O1` (stereo unspecified), the TGI is > 100 µM.

Turning to `COc1c(CNC(=O)CCl)cc2[nH]c(C)cc2c1CNC(=O)CCl`, the GI50 is 23.8 µM and the TGI was > 100 µM.

`CC1(C)C(=S)C(C)(C)C1=S`: the TGI was > 100 µM.

Take `CC(/C=C/c1ccc([N+](=O)[O-])o1)=N/N1CC(CN2CCOCC2)OC1=O` (stereo unspecified): the TGI was > 100 µM.

As to `CCCCNC(=O)Nc1c(C(N)=O)c2n(c1C(=O)OCC)CCCCC2`, the TGI is > 100 µM.

For the compound `c1ccc2c(c1)nc1n2CSC1`, the TGI was > 100 µM.

`O=C(O)C1c2ccccc2C(C(=O)O)c2ccccc21` (stereo unspecified): the TGI was > 100 µM.

For the compound `CSc1ccc2c(cc1=O)C(NC(=O)c1ccc(OC(C)=O)cc1)CCc1cc(O)c(O)c(O)c1-2` (stereo unspecified), the TGI came to 50 µM.

As for `COP1(=O)NCc2ncccc2O1` (stereo unspecified), the TGI was > 100 µM.

Regarding `Cc1cc(-c2nc(-c3ccc(OC(F)(F)F)cc3)no2)nn1Cc1ccnc(N2CCN(C3CC3)CC2)c1`, the GI50 is 19 µM and the TGI was > 100 µM.

With `CC(=O)O[C@H]1CC[C@@]2(C)C(=CC[C@@H]3[C@@H]2CC[C@]2(C)C(=N/O)/C(=C/c4ccc([N+](=O)[O-])cc4)C[C@@H]32)C1`, the TGI is > 100 µM.

`O=C1/C(=C\c2coc3ccccc3c2=O)c2ccccc2N1c1c(Cl)cccc1Cl`: the GI50 was 5.85 µM and the TGI is > 100 µM.

For the compound `CC1OC(OC2CC(O)C3(CO)C4C(O)CC5(C)C(C6=CC(=O)OC6)CCC5(O)C4CCC3(O)C2)C(O)C(O)C1O` (stereo unspecified), the GI50 is < 0.0131 µM and the TGI amounted to 0.0523 µM.

As for `CC12CC[C@H](O)C(C)(C)[C@H]1CC[C@](C)(O)C2COc1ccc2ccc(=O)oc2c1` (stereo partly specified), the TGI is > 100 µM.

Consider `CN(C)C=Nc1cccc2cnccc12`, for which the TGI is > 100 µM.

On to `O=C(N/N=C1/C(=O)c2c3ccccc3cc3cccc1c23)c1cccc(Cl)c1`, for which the TGI was > 100 µM.

Consider `COc1ccc(C2ON(c3ccccn3)CC=C2C)cc1` (stereo unspecified), for which the TGI is > 100 µM.

As for `COc1ccc(C2=NN(c3ccccc3)C(c3cc4cc(Br)ccc4nc3Cl)C2)cc1` (stereo unspecified), the TGI was > 25 µM.

For `Cc1cc(NS(=O)(=O)c2ccc(NC(=O)c3cccc4c(Nc5ccc(S(=O)(=O)Nc6cc(C)on6)cc5)c5ccccc5nc34)cc2)no1`, the TGI was > 100 µM.

Take `CC(=O)Nc1cc2c(cc1O)CC[C@@H]1[C@@H]2CC[C@]2(C)[C@@H](O)CC[C@@H]12`: the TGI is > 100 µM.

For `CNc1ccc(-c2cc(=O)oc3ccc(Cl)cc23)cc1`, the GI50 was 0.558 µM.

With `COC(=O)C(Cc1ccccc1I)C1=CCC2(CC1)OCCO2` (stereo unspecified), the TGI is > 100 µM.

`COC(=O)NN=C(c1ccc(Cl)cc1)c1ccc(Cl)cc1`: the TGI is > 100 µM.

Turning to `C[C@@H](NC(=O)OC1C=CC2(CC1)C(=O)N(C)c1ccccc12)c1cccc2ccccc12` (stereo partly specified), the TGI is > 25 µM.

Compound `C=C1CC(Cn2cc(C)c(=O)[nH]c2=O)(c2ccc(-c3ccccc3)cc2)OC1=O` (stereo unspecified) yielded a TGI of 18.7 µM.

Regarding `O=C1NC(=O)C(C(c2ccc(Cl)cc2)C2C(=O)NC(=O)NC2=O)C(=O)N1`, the TGI is > 100 µM.

Consider `COC(=O)N/N=C/c1oc(-c2ccccc2)c(-c2ccccc2)c1[N+](=O)[O-]`, for which the TGI is > 100 µM.

Turning to `COC(=O)c1ccc([N+](=O)[O-])c(O)c1`, the TGI was > 100 µM.

For the compound `COc1ccc(/C=N/NC(=O)NCCCN(C)C)cc1`, the TGI is > 100 µM.

Turning to `O=c1c2ccccc2nc(-c2ccccc2)n1NC(=S)Nc1ccc(Cl)cc1[N+](=O)[O-]`, the TGI was > 100 µM.

Turning to `CC(C)OP(=O)(OC(C)C)/C(=N/N)NNc1ccc([N+](=O)[O-])cc1`, the TGI was > 100 µM.

`Cc1ccc(/C(=C/C=C(C#N)C#N)Sc2cc(Cl)ccc2Cl)cc1` returned a TGI of 37.9 µM.

As to `COc1c2c(cc3c(CCc4ccccc4)cc(=O)oc13)CCC(C)(C)O2`, the TGI is > 100 µM.

`COc1ccc(C(C2C(=O)N(C)C(=O)N(C)C2=O)C(F)(F)C(=O)N(C)C)cc1` (stereo unspecified): the TGI is > 100 µM.

For `COc1ccccc1S(=O)Nc1ccccc1` (stereo unspecified), the TGI was > 100 µM.

Turning to `COc1ccc2c(c1)nc1n2C(c2c(F)cccc2Cl)SC1` (stereo unspecified), the TGI is > 81.3 µM.

For `O=C(Nc1ccccc1Br)c1cccc([N+](=O)[O-])c1O`, the TGI worked out at 38.6 µM.

`NC(=S)N1N=C2c3ccccc3CC[C@H]2[C@@H]1c1cccs1`: the TGI was > 100 µM.

In turn, `O=C(CCc1ccc(O)c(O)c1)NCCc1cc(OCc2ccccc2)cc(OCc2ccccc2)c1` registered a TGI of 33.9 µM.

Take `CSc1nc2c(N)ncnc2n1C`: the TGI was > 100 µM.

Consider `N#CC(C#N)=C(N)/C(C#N)=C/c1cc(O)c(O)c(Br)c1`, for which the TGI was > 100 µM.

Take `O=C(OCC12CC3CC(CC(C3)C1)C2)c1ccc(NCc2cc(O)ccc2O)cc1`: the TGI was 21.6 µM.

For the compound `COC(=O)[C@@]1(C)CC[C@]2(C)CC[C@]3(C)C4=CC=C5C(=CC(=O)C(O)=C5C)[C@]4(C)CC[C@@]3(C)[C@@H]2C1`, the GI50 was 0.584 µM and the TGI was found to be 1.92 µM.

As to `CC(=O)OC(C)(C)N=Nc1ccc(Br)cc1`, the TGI is > 100 µM.

Regarding `N=C(N)n1[nH]c2c(c1=O)CCCC2`, the TGI was > 100 µM.

In the case of `O=C(CCCc1ccccn1)c1ccccc1`, the TGI is > 100 µM.

As to `CC(C)=CC(=O)OC1C2C(C)C(=O)OC2C(O)C(C)C2C=CC(=O)C21C` (stereo unspecified), the TGI was 10.8 µM.

For the compound `COc1ccc(-c2nn(-c3cccc(NC(=O)Nc4cc(C(F)(F)F)cc(C(F)(F)F)c4)c3)cc2-c2ccncc2)cc1Cl`, the GI50 was 1.87 µM and the TGI was 10.3 µM.

As to `C=C1Oc2nc3ccccc3c(=O)n2C1(C)C`, the TGI was > 100 µM.

Turning to `CCCC(=O)OC[n+]1cccc(-c2c(COC(=O)NC(C)C)c(COC(=O)NC(C)C)c3n2CCC3)c1`, the TGI is > 100 µM.

Regarding `COc1ccc(-n2c(C)nc3ccc(NC4OCC(O)C(O)C4O)cc3c2=O)cc1` (stereo unspecified), the TGI was > 100 µM.

Take `COc1ccc(N2C(=O)/C(=C\c3cccc(Oc4ccccc4)c3)S(=O)(=O)C2c2ccccc2)cc1` (stereo unspecified): the TGI is > 100 µM.

As to `N#Cc1c(NC(=O)CN2CCOCC2)sc2c1CCCC2`, the GI50 was > 25 µM and the TGI was > 25 µM.

As for `COc1cc(C(C)c2cc3c(cc2OCCCCOc2cc4c(cc2C(C)c2cc(OC)c(OC)c(OC)c2)OCO4)OCO3)cc(OC)c1OC` (stereo unspecified), the TGI is > 100 µM.

With `COc1cc(C2CC(c3cc(C)ccc3C)=NN2c2ccc(S(=O)(=O)NC(=O)NCc3ccccc3)cc2)cc(OC)c1OC` (stereo unspecified), the GI50 is 5.41 µM and the TGI was found to be 26.2 µM.

In the case of `COc1ccc(C2=C(c3cc(OC)c(OC)c(OC)c3)C(=O)CC2)cc1`, the GI50 is 6.84 µM and the TGI was > 100 µM.

As for `Nc1ccccc1NC(=O)c1ccc(CN2CCC/C(=C\c3cccc(Cl)c3)C2=O)cc1`, the GI50 was 0.525 µM and the TGI is > 100 µM.

Consider `CC(=O)OCC1OC(OC2=C(CC=C(Cl)Cl)C(=O)c3ccccc3C2=O)C(OC(C)=O)C(OC(C)=O)C1OC(C)=O` (stereo unspecified), for which the GI50 is 14.2 µM and the TGI was 29.1 µM.

For `CO/N=C1/c2sccc2[C@H](NC(=O)C(F)(F)F)[C@@H]1O`, the TGI was > 100 µM.

On to `CC[CH2][Sn]([Cl])([Cl])[CH2]CC`, for which the GI50 was 16 µM and the TGI was 32 µM.

Consider `CCN(CC)CCCC(Nc1c2ccc(Cl)cc2nc2ccc(OC)cc12)c1ccc(F)cc1` (stereo unspecified), for which the GI50 was 2.43 µM and the TGI stood at 6.17 µM.
